No constants are given. Whether binding was seen depends on the method and setting. Some results given as binding are weak or reduced against the parent protein; the word gives no strength. For some assays here: Where a sequence is shown, tags or fusion partners need not be part of it.
T1: LexA-Vac8 (S. cerevisiae) (UniProt P39968)
T1 sequence: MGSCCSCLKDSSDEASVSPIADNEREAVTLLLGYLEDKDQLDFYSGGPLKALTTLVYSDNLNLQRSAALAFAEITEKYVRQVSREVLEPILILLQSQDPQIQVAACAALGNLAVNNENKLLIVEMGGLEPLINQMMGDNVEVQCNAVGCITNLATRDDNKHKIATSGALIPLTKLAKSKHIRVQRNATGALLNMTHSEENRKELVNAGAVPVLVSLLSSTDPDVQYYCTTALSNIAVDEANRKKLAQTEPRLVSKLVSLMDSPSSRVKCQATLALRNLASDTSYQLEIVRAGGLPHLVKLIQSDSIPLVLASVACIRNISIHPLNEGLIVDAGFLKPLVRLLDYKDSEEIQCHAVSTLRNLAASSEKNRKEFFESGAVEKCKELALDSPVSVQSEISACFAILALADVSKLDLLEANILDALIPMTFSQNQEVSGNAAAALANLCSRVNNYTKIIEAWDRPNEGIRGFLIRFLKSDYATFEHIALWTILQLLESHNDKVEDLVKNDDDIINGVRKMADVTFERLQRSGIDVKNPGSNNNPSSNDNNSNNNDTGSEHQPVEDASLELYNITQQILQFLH

T2: Atg13-ot-BFP (S. cerevisiae) (UniProt Q06628)
T2 sequence: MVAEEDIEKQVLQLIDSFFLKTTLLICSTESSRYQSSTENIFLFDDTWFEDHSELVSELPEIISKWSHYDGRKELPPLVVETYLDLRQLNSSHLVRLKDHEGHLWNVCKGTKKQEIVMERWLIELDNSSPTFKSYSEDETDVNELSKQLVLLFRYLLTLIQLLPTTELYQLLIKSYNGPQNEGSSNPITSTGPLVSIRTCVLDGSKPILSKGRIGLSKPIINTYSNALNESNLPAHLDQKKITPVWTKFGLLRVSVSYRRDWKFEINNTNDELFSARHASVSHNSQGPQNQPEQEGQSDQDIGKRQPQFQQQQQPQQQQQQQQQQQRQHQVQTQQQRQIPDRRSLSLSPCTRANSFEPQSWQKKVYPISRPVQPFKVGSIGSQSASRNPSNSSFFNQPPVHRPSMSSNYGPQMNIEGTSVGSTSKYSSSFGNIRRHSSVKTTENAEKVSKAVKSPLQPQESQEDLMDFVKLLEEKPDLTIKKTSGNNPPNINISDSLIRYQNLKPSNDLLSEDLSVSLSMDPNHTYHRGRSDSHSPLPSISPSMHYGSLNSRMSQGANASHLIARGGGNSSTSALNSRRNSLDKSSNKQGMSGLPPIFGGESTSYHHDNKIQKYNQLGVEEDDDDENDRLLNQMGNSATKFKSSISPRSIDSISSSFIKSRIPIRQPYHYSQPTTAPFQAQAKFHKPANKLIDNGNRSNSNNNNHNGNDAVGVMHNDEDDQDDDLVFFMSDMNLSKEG

T3: Atg11-GFP-µNS (S. cerevisiae) (UniProt Q12527)
T3 sequence: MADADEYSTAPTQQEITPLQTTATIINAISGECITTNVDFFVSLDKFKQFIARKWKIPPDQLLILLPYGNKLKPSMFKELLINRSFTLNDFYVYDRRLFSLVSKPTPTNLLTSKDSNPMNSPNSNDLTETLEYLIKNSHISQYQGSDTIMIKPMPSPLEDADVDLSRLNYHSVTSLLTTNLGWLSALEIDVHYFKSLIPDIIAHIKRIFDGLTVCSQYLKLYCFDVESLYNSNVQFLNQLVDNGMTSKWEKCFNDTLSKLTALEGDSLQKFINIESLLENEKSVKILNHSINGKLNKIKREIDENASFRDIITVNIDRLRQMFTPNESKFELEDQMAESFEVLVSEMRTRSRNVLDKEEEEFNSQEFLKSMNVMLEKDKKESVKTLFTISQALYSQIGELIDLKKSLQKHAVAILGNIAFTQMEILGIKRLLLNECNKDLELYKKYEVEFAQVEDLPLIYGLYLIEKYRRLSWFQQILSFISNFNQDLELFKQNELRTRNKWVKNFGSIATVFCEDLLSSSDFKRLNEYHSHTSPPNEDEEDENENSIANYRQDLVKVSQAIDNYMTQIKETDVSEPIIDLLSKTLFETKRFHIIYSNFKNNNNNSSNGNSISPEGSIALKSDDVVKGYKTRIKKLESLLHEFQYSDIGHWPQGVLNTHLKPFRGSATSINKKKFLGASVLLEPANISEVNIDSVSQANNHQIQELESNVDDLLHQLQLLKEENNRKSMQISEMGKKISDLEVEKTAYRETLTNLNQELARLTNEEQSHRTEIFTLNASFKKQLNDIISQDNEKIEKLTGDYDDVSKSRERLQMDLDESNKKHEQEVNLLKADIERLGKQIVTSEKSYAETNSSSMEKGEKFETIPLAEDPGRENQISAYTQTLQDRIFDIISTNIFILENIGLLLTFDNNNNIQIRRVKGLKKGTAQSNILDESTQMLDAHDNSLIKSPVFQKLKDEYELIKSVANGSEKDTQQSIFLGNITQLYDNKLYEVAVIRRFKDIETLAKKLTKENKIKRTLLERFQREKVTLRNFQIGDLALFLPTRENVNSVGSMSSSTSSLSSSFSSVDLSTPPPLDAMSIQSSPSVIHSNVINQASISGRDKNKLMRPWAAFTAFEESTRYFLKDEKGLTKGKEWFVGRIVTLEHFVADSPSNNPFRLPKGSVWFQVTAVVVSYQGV

B1: Atg11^FL-GAD (protein, UniProt Q12527 1-1178)
chain: T3 sequence
B2: Atg11^1–454-GAD (domain or fragment, UniProt Q12527 1-454)
chain: MADADEYSTAPTQQEITPLQTTATIINAISGECITTNVDFFVSLDKFKQFIARKWKIPPDQLLILLPYGNKLKPSMFKELLINRSFTLNDFYVYDRRLFSLVSKPTPTNLLTSKDSNPMNSPNSNDLTETLEYLIKNSHISQYQGSDTIMIKPMPSPLEDADVDLSRLNYHSVTSLLTTNLGWLSALEIDVHYFKSLIPDIIAHIKRIFDGLTVCSQYLKLYCFDVESLYNSNVQFLNQLVDNGMTSKWEKCFNDTLSKLTALEGDSLQKFINIESLLENEKSVKILNHSINGKLNKIKREIDENASFRDIITVNIDRLRQMFTPNESKFELEDQMAESFEVLVSEMRTRSRNVLDKEEEEFNSQEFLKSMNVMLEKDKKESVKTLFTISQALYSQIGELIDLKKSLQKHAVAILGNIAFTQMEILGIKRLLLNECNKDLELYKKYEVEFAQVE
B3: Vac8∆N-GFP (domain or fragment, UniProt P39968 19-578)
chain: PIADNEREAVTLLLGYLEDKDQLDFYSGGPLKALTTLVYSDNLNLQRSAALAFAEITEKYVRQVSREVLEPILILLQSQDPQIQVAACAALGNLAVNNENKLLIVEMGGLEPLINQMMGDNVEVQCNAVGCITNLATRDDNKHKIATSGALIPLTKLAKSKHIRVQRNATGALLNMTHSEENRKELVNAGAVPVLVSLLSSTDPDVQYYCTTALSNIAVDEANRKKLAQTEPRLVSKLVSLMDSPSSRVKCQATLALRNLASDTSYQLEIVRAGGLPHLVKLIQSDSIPLVLASVACIRNISIHPLNEGLIVDAGFLKPLVRLLDYKDSEEIQCHAVSTLRNLAASSEKNRKEFFESGAVEKCKELALDSPVSVQSEISACFAILALADVSKLDLLEANILDALIPMTFSQNQEVSGNAAAALANLCSRVNNYTKIIEAWDRPNEGIRGFLIRFLKSDYATFEHIALWTILQLLESHNDKVEDLVKNDDDIINGVRKMADVTFERLQRSGIDVKNPGSNNNPSSNDNNSNNNDTGSEHQPVEDASLELYNITQQILQFLH
B4: Atg9 (partner of Atg11-GFP-µNS particles) (protein, UniProt Q12142 1-997)
chain: MERDEYQLPNSHGKNTFLSRIFGLQSDEVNPSLNSQEMSNFPLPDIERGSSLLHSTNDSREDVDENDLRVPESDQGTSTEEEDEVDEEQVQAYAPQISDGLDGDHQLNSVTSKENVLETEKSNLERLVEGSTDDSVPKVGQLSSEEEEDNEFINNDGFDDDTPLFQKSKIHEFSSKKSNTIEDGKRPLFFRHILQNNRPQRDTQKLFTSSNAIHHDKDKSANNGPRNINGNQKHGTKYFGSATQPRFTGSPLNNTNRFTKLFPLRKPNLLSNISVLNNTPEDRINTLSVKERALWKWANVENLDIFLQDVYNYYLGNGFYCIILEKILNICTLLFVVFVSTYMGHCVDYSKLPTSHRVSDIIIDKCYSNSITGFTKFFLWMFYFFVILKIVQLYFDVQKLSELQNFYKYLLNISDDELQTLPWQNVIQQLMYLKDQNAMTANVVEVKAKNRIDAHDVANRIMRRENYLIALYNSDILNLSLPIPLFRTNVLTKTLEWNINLCVMGFVFNESGFIKQSILKPSQREFTREELQKRFMLAGFLNIILAPFLVTYFVLLYFFRYFNEYKTSPGSIGARQYTPIAEWKFREYNELYHIFKKRISLSTTLANKYVDQFPKEKTNLFLKFVSFICGSFVAILAFLTVFDPENFLNFEITSDRSVIFYITILGAIWSVSRNTITQEYHVFDPEETLKELYEYTHYLPKEWEGRYHKEEIKLEFCKLYNLRIVILLRELTSLMITPFVLWFSLPSSAGRIVDFFRENSEYVDGLGYVCKYAMFNMKNIDGEDTHSMDEDSLTKKIAVNGSHTLNSKRRSKFTAEDHSDKDLANNKMLQSYVYFMDDYSNSENLTGKYQLPAKKGYPNNEGDSFLNNKYSWRKQFQPGQKPELFRIGKHALGPGHNISPAIYSTRNPGKNWDNNNNGDDIKNGTNNATAKNDDNNGNNDHEYVLTESFLDSGAFPNHDVIDHNKMLNSNYNGNGILNKGGVLGLVKEYYKKSDVGR
B5: Atg19 (partner of Atg11-GFP-µNS particles) (protein, UniProt P35193 1-415)
chain: MNNSKTNQQMNTSMGYPLTVYDECNKFQLIVPTLDANIMLWCIGQLSLLNDSNGCKHLFWQPNDKSNVRILLNNYDYGHLFKYLQCQRKCSVYIGEGTLKKYNLTISTSFDNFLDLTPSEEKESLCREDAHEDPVSPKAGSEEEISPNSTSNVVVSRECLDNFMKQLLKLEESLNKLELEQKVTNKEPNHRISGTIDIPEDRSELVNFFTELKTVKQLEDVFQRYHDYERLSQECDSKTEIASDHSKKETKIEVEPPNERSLQITMNQRDNSLYFQLFNNTNSVLAGNCKLKFTDAGDKPTTQIIDMGPHEIGIKEYKEYRYFPYALDLEAGSTIEIENQYGEVIFLGKYGSSPMINLRPPSRLSAESLQASQEPFYSFQIDTLPELDDSSIISTSISLSYDGDDNEKALTWEEL

How the values were obtained:
[1] = biological target: T1, LexA-Vac8 (S. cerevisiae); assay: two-hybrid; GAD and LexA fusions in the S. cerevisiae L40 reporter strain; X-gal colour reaction of lysed cells in 96-well plates
[2] = biological target: T2, Atg13-ot-BFP (S. cerevisiae); assay: recruitment of GFP-tagged prey to oligomer-tethered bait (live-cell fluorescence microscopy); bait fused to the ot peptide and clustered on cytosolic Ape1 oligomers in atg19∆ vac8∆ yeast; cells with GFP puncta counted; only the bait is clustered
[3] = biological target: T3, Atg11-GFP-µNS (S. cerevisiae); assay: association with Atg11-GFP-µNS particles (fluorescence microscopy); Atg11-GFP-µNS particles in yeast cells; Supplementary Fig. 1c, d, details not shown

Binder | binding [1] | binding [3] | other results
B1 | binds | – | –
B2 | binds | – | –
B3 | – | – | binding [2]: binds
B4 | – | binds | –
B5 | – | binds | –
